Assay results published in PubChem BioAssay (Tox21).
The inconclusive results got no clear call from the source; some entries with a clear call stand among them for comparison. No potency is given beside an inconclusive call; the fits are too rough. Activity calls are given as the source filed them. Calls follow the shape of the dose curve; as a rule, active = well fitted cell-killing curve with a large enough effect in the repeat runs; inconclusive = weak or mixed curves, or effect the other way; inactive = no such curve, though single readings can be large or run the other way.
Potency is read from the fitted curve at half-maximal effect; tags tell the direction and shape of the fitted curve.

Assay: qHTS assay to identify small molecule antagonists of the sonic hedgehog signaling (Shh) pathway - cell viability counter screen (AID 1259367); also: nearly all actives have a fitted effect of over 55% in size
Conditions: NIH/3T3 Gli1-Luc viability, CellTiter-Fluor, 24 h; series mostly up to 92.4 µM
Method in brief: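 Viability was read by CellTiter-Fluor fluorescence in the same wells, reagent added 23 hr into compound treatment and incubated 1 hr at 37C. The 3T3 Gli1-Luc reporter cells (2,000/well) received conditioned medium after compound and ran 24 hr.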
For `O=C(O)CCCCCCCCCCC(=O)O`, the Potency was “inactive”. For `O=C1CCCc2c(O)cccc21`, the Potency was “inactive”. For `O=C(O)c1ccccc1Cl`, the Potency was “inactive”. For `CC(C)(C)C1CCC(=O)CC1`, the Potency was inconclusive [cytotoxic]. With `c1ccc(CSCc2ccccc2)cc1` the Potency was “inactive”. For `[Cl][Pt-2]([Cl])([Cl])[Cl]`, the Potency was inconclusive [cytotoxic, single point]. In the case of `O=[N+]([O-])c1cccc(S(=O)(=O)NCCNS(=O)(=O)c2cccc([N+](=O)[O-])c2)c1`, the Potency is reported as “inactive”. With `CCCCc1nc2cccnc2n1Cc1ccc(-c2ccccc2-c2nnn[nH]2)cc1` the Potency was active: 17.2 µM. In the case of `COC(=O)C1=C(C)NC(COC(N)=O)=C(C(=O)OC(C)C)C1c1cccc(Cl)c1Cl` (configuration not stated), the Potency is reported as inconclusive [cytotoxic]. In the case of `CC(=O)C1(C)CC2=C(CCCC2(C)C)CC1C` (configuration not stated), the Potency is reported as “inactive”. With `OC[C@H]1O[C@@H](O[C@@H]2[C@@H](CO)O[C@](O)(CO)[C@H]2O)[C@H](O)[C@@H](O)[C@H]1O` the Potency was “inactive”. In the case of `Cc1ccc(C)c(O)c1C`, the Potency is reported as “inactive”. For `C=CC(=O)OCCOC(=O)CCC(=O)O`, the Potency was inconclusive [cytotoxic]. With `CCCCCCCCOc1ccc(C(=O)c2ccccc2)c(O)c1` the Potency was inconclusive [cytotoxic, single point]. In the case of `O=C(O)c1cccc(Cl)n1`, the Potency is reported as inconclusive [cytotoxic, single point]. With `Nc1cccc(N)c1` the Potency was “inactive”. In the case of `CCCCOCCOC(=O)CCCCCCCCC(=O)OCCOCCCC`, the Potency is reported as inconclusive [cytotoxic, single point].
